In PubChem BioAssay AID1159614 (National Center for Advancing Translational Sciences (NCATS), 2016):
About 65 (0.1%) of roughly 45,000 compounds were called active. Calls come from the whole dose curve; as a rule, active = well fitted activation curve with a large enough effect; inconclusive = small, poorly fitted or top-dose-only effect; inactive = no such curve, though single readings can be large or run the other way. The list shows a part of the results.

Biological target: Galactocerebrosidase (Homo sapiens) (UniProt P54803)
Sequence of UniProt P54803 (P54803 whole entry, looked up): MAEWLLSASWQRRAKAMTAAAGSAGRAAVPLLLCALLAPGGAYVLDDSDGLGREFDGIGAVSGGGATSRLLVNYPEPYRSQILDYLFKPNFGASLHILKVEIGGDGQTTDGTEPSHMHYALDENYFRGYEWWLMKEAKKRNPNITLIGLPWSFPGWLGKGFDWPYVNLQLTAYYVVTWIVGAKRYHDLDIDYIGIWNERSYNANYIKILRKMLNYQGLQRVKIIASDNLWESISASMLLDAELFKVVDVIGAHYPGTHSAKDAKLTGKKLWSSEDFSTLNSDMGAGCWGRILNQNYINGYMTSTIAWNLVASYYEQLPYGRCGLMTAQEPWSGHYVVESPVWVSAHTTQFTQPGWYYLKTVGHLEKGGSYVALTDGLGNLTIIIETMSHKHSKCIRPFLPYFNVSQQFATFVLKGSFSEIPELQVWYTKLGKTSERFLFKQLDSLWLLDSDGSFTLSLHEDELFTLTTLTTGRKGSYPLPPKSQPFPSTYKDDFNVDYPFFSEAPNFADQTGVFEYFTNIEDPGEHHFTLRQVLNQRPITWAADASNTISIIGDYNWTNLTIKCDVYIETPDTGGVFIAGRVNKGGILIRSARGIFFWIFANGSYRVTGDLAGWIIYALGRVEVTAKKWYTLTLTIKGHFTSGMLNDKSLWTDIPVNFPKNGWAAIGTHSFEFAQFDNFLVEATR
Assay: A Novel Cell-Based Assay to Identify Small Molecules for B -Galactocerebrosidase; note: 0% is about no effect; nearly all actives have a fitted effect of over 65% in size
Conditions: 145M-Twi-hGALC-G270D cells (Twitcher mouse brain line with human GALC G270D), HMU-beta-Gal fluorescence, 48 h; series mostly up to 57.5 µM; activation: at the top concentration
Method in brief: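 Live 145M-Twi cells (Twitcher mouse brain-derived, GALC-null) stably expressing human GALC-G270D, with a wild-type GALC line, were compound-treated. Residual GALC activity was then read as fluorescence from 0.1 mM final HMU-β-gal at pH 5.2; higher signal means activation.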

activation, inactive:
COc1cccc(C(=O)N2CCc3c([nH]c4ccccc34)C2c2ccc(SC)cc2)c1 (stereo not given) -0.0597%
Cc1ccc(Nc2nnc(-c3cc4c(ccc5ccccc54)oc3=O)s2)cc1 4.88%
COc1ccc(CNC(=O)CN2C(=O)COc3ccc(S(=O)(=O)NC4CCCC4)cc32)cc1 6.71%
COc1ccc(CCNC(=O)CCc2c(C)nc3cc(-c4ccccc4OC)nn3c2C)c(OC)c1 -0.22%
COc1ccc(/C=C\c2onc(C)c2S(=O)(=O)N2CCC(C(=O)Nc3cccc(Cl)c3)CC2)cc1 -3.05%
COc1ccccc1NC(=O)CSc1nnc2c3ccccc3n(C(C)C)c2n1 -20.8%
CCOC(=O)c1cccc(NC(=O)Cn2c(=O)nc(-c3ccccc3F)c3cc(Cl)ccc32)c1 -5.79%
CCn1c(=O)c2cc(C(=O)N(CC(C)C)CC(C)C)sc2c2ccccc21 -33.1%
CCOc1ccc(CCNC(=O)c2csc3c2CCCCC3)cc1 2.24%
COc1cccc(CNC(=O)CCCN2C(=O)CCn3nc(-c4cccn4C)cc32)c1 -11.9%
CCN(C(=O)CSc1nc2ccccc2n1CC(=O)NCc1ccc(OC)cc1)c1ccccc1 -11.6%
CCOC(=O)c1ccc(NC(=O)CN2c3ccccc3S(=O)(=O)c3ccccc32)cc1 -8.34%
Cc1ccc2nc(CSc3nnc(NC(=O)c4cccc(Br)c4)s3)cc(=O)n2c1 3.24%
CCOC(=O)c1cc(-c2ccccc2)n(CCC(=O)NC2CCCCC2)c1C -16.4%
Cc1ccc(CNc2ncnc3c2nc2n3CCCC2)cc1 -1.08%
COc1ccc(-c2c(C)nn3c(N4CCN(c5ccccc5)CC4)cc(C)nc23)cc1OC -7.33%
COc1ccc(NC(=O)CC2C(=O)N(c3ccc(F)cc3)C(=O)N2Cc2ccc3c(c2)OCO3)cc1 (stereo not given) -13.3%
CCCn1c(=N)c(C(=O)NC2CCCC2)cc2c(=O)n3cccc(C)c3nc21 -12.4%
COc1ccc(/C=C(/C#N)c2nc(-c3ccc(-c4ccccc4)cc3)cs2)cc1OC 7.92%
COc1cc(NC(=O)CCn2cnc3ccccc3c2=O)cc(OC)c1 -19.9%
CCc1cccc(C)c1NC(=O)c1cc(S(=O)(=O)N2CCOCC2)cn1C -0.836%
CCOC(=O)c1ccccc1NC(=O)n1ncc2cc(Cl)ccc21 -8.91%
Cc1noc(C)c1S(=O)(=O)Nc1ccc(C(=O)Nc2ccc(Br)cc2)cc1 -22.4%
CCCCOc1ccc(CNC(=O)c2cc3n(n2)CCCN(Cc2ccc(C)cc2)C3=O)cc1 -11.2%
COc1ccc(OCCn2c(C)nc3cc(C)c(C)cc32)cc1 -7.77%
CCCCSCCCNC(=O)c1cn(CC)c2ccc(S(=O)(=O)N3CCCCCC3)cc2c1=O 4.16%
CCOc1cccc(C(=O)Nc2ccc3oc(-c4cccnc4)nc3c2)c1 -13%
C[C@H](NC(CCc1ccccc1)C(=O)O)C(=O)N1CCC[C@H]1C(=O)O (stereo not given in full) -18.5%
CC(C)c1ccc(NC(=O)Cn2nnc(C(=O)NCc3cccs3)c2N)cc1 -3.92%
Fc1ccc(Nc2nc(Nc3ccc(F)cc3)nc(N3CCOCC3)n2)cc1 -10.7%
CCCCn1c(SCC(=O)Nc2ccc(F)cc2)nc2c(sc3ccccc32)c1=O -8.41%
COc1ccc(C(=O)NCC(c2ccc3c(c2)OCO3)N2CCN(c3ccc(F)cc3)CC2)cc1 (stereo not given) -16.4%
Cc1ccc(N(CC(C)C)S(=O)(=O)c2nnc(NC(=O)c3cccs3)s2)cc1 -13.3%
Cc1ccc2oc3c(c(=O)c2c1)C(c1ccc(OCC(N)=O)cc1)N(Cc1ccc2c(c1)OCO2)C3=O (stereo not given) -11.1%
CNC(=O)CSc1nnc(NC(=O)Nc2ccccc2)s1 -6.96%
O=C(CSc1nnc(-c2ccc(Br)cc2)n1-c1ccccc1)c1ccccc1 -13.1%
CCOc1ccccc1N(CC(=O)Nc1ccc(OC)c(Cl)c1)S(=O)(=O)c1ccccc1 -16.5%
CCOc1ccc(-c2cc(C(=O)N3CCN(c4cccc(C(F)(F)F)c4)CC3)c3ccccc3n2)cc1 -16.6%
COc1ccc(NC(=O)C(=O)NCC2(c3ccccc3)CCCC2)c(OC)c1 -24.3%
COc1ccccc1CNC(=O)Cn1c(=O)ccc2cc(S(=O)(=O)N3CCCC3)ccc21 -21.5%
CC1CCCCN1C(=O)CSc1nnc(-c2ccccc2Cl)o1 (stereo not given) -9.34%
CCOc1ccc(N(CC)S(=O)(=O)N2CCCC(C(=O)NCCc3ccccc3OC)C2)cc1 (stereo not given) -21.3%
COc1ccc(-c2cn3nc(N4CCC(C(=O)Nc5ccc(C)cc5)CC4)sc3n2)cc1 -8%
Cc1cccc(Oc2coc3cc(OCC(=O)NC4CCCCC4)ccc3c2=O)c1 -24.4%
CCOCN(C(=O)Cn1cnc2cc(C)c(C)cc21)c1c(C)cccc1CC 2.12%
CCOc1ccc(/C=C/c2nc(C#N)c(N3CCN(c4ccccc4)CC3)o2)cc1 -6.3%
COc1ccc(CNC(=O)CN2C(=O)COc3ccc(S(=O)(=O)N4CCOCC4)cc32)cc1 -19.2%
Cc1ccc2oc(-c3cc(NC(=O)c4cccs4)cc(C)c3O)nc2c1 -11.3%
COc1ccc(Br)cc1CNC(=O)C1COc2ccccc2C1 (stereo not given) -7.22%
O=C(Nc1ccc(C(=O)N2CCN(c3ccc(Cl)cc3)CC2)cc1)c1nsc2ccccc12 -11%
CCOC(=O)N1CCN(C(=O)CN(c2cc(C)ccc2OC)S(=O)(=O)c2ccc(C)cc2)CC1 -5.9%
CC(C)(C)c1ccc(-c2noc(CCC(=O)Nc3cccc(Cl)c3)n2)cc1 -12.5%
Cc1ccc(-c2nnc(Nc3cccc(C(F)(F)F)c3)c3ccccc23)cc1S(=O)(=O)N1CCOCC1 -4.59%
Cc1cncn1CCc1nc2c3ccccc3nc(SCC(=O)Nc3ccccc3F)n2n1 -3.36%
O=C(c1ccc(CS(=O)(=O)c2c(Cl)cccc2Cl)o1)N1CCN(c2ccccc2)CC1 -0.508%
Cc1ccc(-n2c(SCC(N)=O)nc3c([nH]c4ccccc43)c2=O)cc1 -2.57%
Cc1ccc(Cn2c(C)c(CNC(C)c3ccccc3)c(C(=O)O)c2C)cc1 (stereo not given) -10.8%
Cc1ccc(Cl)cc1N1CCN(c2ncnc3onc(-c4ccc(F)cc4)c23)CC1 -0.0363%
COC(=O)c1sc2cccc(F)c2c1S(=O)(=O)N1CCN(c2ccc(C)cc2C)CC1 -6.66%
CC1CCN(S(=O)(=O)c2nnc(NC(=O)c3cccc(F)c3)s2)CC1 -19.2%
Cc1ccc(NC(=O)c2cc(S(=O)(=O)N3CCCC3)c[nH]2)c(C)c1 -13.7%
Cc1cccc(N2CCN(C(=O)c3ccc4c(c3)c(C)c(C)n4C)CC2C)c1 (stereo not given) 0.36%
COc1ccc(OC)c(S(=O)(=O)NCCc2csc3nc(-c4ccccc4)nn23)c1 -12.4%
COc1ccccc1N1CCN(c2cc(C)nc3nc(-c4ccc(Cl)cc4)nn23)CC1 -12.7%
COc1nc(-c2ccc(C)cc2)ccc1-c1noc(-c2ccc(C(C)(C)C)cc2)n1 -13.6%
CCc1ccc(-n2nc(C)c3c(C(=O)Nc4cc(C)ccc4C)cc(C)nc32)cc1 -6.8%
CCOc1ccccc1CNC(=O)C1CCCN(S(=O)(=O)c2ccc3c(ccn3C)c2)C1 (stereo not given) -13.9%
Cc1ccc(N2CCN(c3nc4c(S(=O)(=O)c5ccc(C)c(C)c5)nnn4c4ccccc34)CC2)c(C)c1 -3.02%
CCc1cccc(C)c1NC(=O)CN(C)S(=O)(=O)c1cccc2nsnc12 -13.3%
Cc1c(C(=O)N(Cc2ccc(N(C)C)cc2)CC2CCCO2)oc2ccc(Br)cc12 (stereo not given) -13.9%
CCc1c(C)c2ccc(O)c(CN3CCN(c4ccccc4)CC3)c2oc1=O -16.8%
CC(=O)N1CCc2cc(Br)cc(S(=O)(=O)CCC(=O)Nc3ccc(C)cc3Cl)c21 -14.5%
CCOc1ccc2oc(=O)cc(CN3CCN(c4ccc(Cl)cc4)CC3)c2c1 6.98%
CCOC(=O)c1c(NC(=O)COc2ccc(Cl)cc2C)sc(C(C)=O)c1C -14.5%
CCN1CCN(c2cc(C)c3cc(NC(=O)c4ccccc4F)ccc3n2)CC1 -7.52%
Cc1ccc(S(=O)(=O)c2cn(C)c3cc(N4CCCCC4)c(F)cc3c2=O)cc1 -13.5%
COc1ccc(C)cc1NC(=O)N1CCC(CN2CCC(C)CC2)CC1 -9.38%
Cc1cc(OCC(=O)NCC2(N3CCOCC3)CCCCC2)ccc1Cl -0.803%
CCc1noc(-c2ccc(N3CCCCC3)c([N+](=O)[O-])c2)n1 -17.5%
CCCN(CCC)CCNC(=O)c1cc(-c2ccc(Br)s2)nc2ccccc12 12.1%
Brc1ccc2nc(-c3ccccc3)c(Nc3ccc4c(c3)OCO4)n2c1 -8.25%
CCC(=O)N1CCc2cc(CNC(=O)Nc3cc(Cl)ccc3C(=O)OC)ccc21 -16.8%
CCc1cccc(NC(=O)C(CC(C)C)NS(=O)(=O)c2ccc3c(c2)oc(=O)n3C)c1 (stereo not given) -38.4%
COc1ccccc1CN1CCC(CNC(=O)c2cnn(-c3ccc(C)c(C)c3)c2C2CCN(C(=O)OC(C)(C)C)CC2)CC1 -7.85%
Cc1ccc(CN2C(=O)c3ccccc3Sc3ccc(C(=O)NCCCN4CCOCC4)cc32)cc1 2.74%
Cc1cc(Cl)ccc1OCc1cc(=O)n2c3c(sc2n1)CCCC3 -19%
Cn1nnnc1SCCNCc1ccc(OCc2ccc(Cl)cc2)cc1 6.24%
O=C(Nc1cccc(Cl)c1)C1CCCN1S(=O)(=O)c1cccc2cccnc12 (stereo not given) -7.75%
CCc1ccc(CNC(=O)CN2C(=O)CCn3nc(-c4cn(C)c5ccccc45)cc32)cc1 -23.8%
COc1ccccc1-c1nnc(SCC(=O)c2ccc(F)cc2)n1-c1ccccc1 -36%
COc1ccc(C(=O)Nc2ccc(N3CCOCC3)c(C(F)(F)F)c2)cc1OC 7.26%
Cc1cccc(NC(=O)CSc2nc(=O)n(Cc3cccnc3)c3c2CCC3)c1C -7.69%
C[C@H]1O[C@@H](n2cc(F)c(=O)[nH]c2=O)[C@H](O)[C@@H]1O -13.2%
Cc1oc(-c2cccc(Cl)c2)nc1CN1CCC(C(=O)NCCc2ccc(Cl)cc2)CC1 -6.77%

Potency, inactive:
C[C@@H](O)[C@H]1C(=O)N2C(C(=O)O)=C(S[C@@H]3CN[C@H](C(=O)N(C)C)C3)[C@H](C)[C@H]12
